These results are taken from PubChem BioAssay AID360 (National Center for Advancing Translational Sciences (NCATS), 2006).

About 550 (1.1%) of roughly 48,000 compounds were called active. About 4% were inconclusive and are not listed. Rule as the data show it: active = potency below about 15 µM; inconclusive = mostly about 16 µM to 33 µM; inactive = weaker than that. Some of the results follow. Bounds are passed on as bounds.
Potency is read from the fitted curve at half-maximal effect.

This assay concerns the target Lysosomal acid glucosylceramidase (Homo sapiens) (UniProt P04062). As to the kind of experiment: Glucocerebrosidase.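 Also: the screen sought inhibitors.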 To be noted: purified enzyme, resorufin glucoside fluorescence (screen aimed at inhibitors), 20 min. An excerpt: NCGC Assay Overview: Beta-glucocerebrosidase catalyzes the hydrolysis of beta-glucocerebroside to glucose and ceramide. The inherited deficiency of beta-glucocerebrosidase results in Gaucher disease, which is characterized by a wide variety of symptoms including hepatosplenomegaly, anemia, thrombocytopenia, bony lesions and bone marrow infiltration with characteristic storage cells, known as Gaucher cells. There are also forms of the disorder affecting the central nervous system. Patients with the same genotypes can manifest with diverse clinical presentations and it is believed that improper folding and trafficking of beta-glucocerbrosidase may contribute to the phenotypes observed. Low molecular weight molecules, acting as chaperones, may potentially restore trafficking of misfolded beta-glucocerebrosidase from the endoplasmic reticulum to the lysosomes, thereby enhancing functional lysosomal beta-glucocerebrosidase activity. Using normal beta-glucocerebrosidase, an assay was developed to screen for small molecule inhibitors that could potentially act as molecular chaperones on the mutant forms [developed with NIH investigator Dr. Ellen Sidransky's laboratory]. Two pro-fluorescent substrates were chosen for two screens against a small molecule library. One beta-glucocerebrosidase assay used Resorufin beta-D-Glucopyranoside (Marker Gene Technology Inc.), generating a red fluorescent product. The second assay used Fluorescein di-beta-D-Glucopyranoside, generating a blue fluorescent product. […] The IC50 values of Conduritol B Epoxide, a known glucocerebrosidase inhibitor, were determined to be 87.5 uM and 117 uM, respectively. The use of two difference pro-fluorescent substrates in the screens helped to eliminate false positives. All compounds were screened in a titration series resulting in AC50s (e.g., IC50s or EC50s).
UniProt P04062, sequence (P04062 whole entry, looked up): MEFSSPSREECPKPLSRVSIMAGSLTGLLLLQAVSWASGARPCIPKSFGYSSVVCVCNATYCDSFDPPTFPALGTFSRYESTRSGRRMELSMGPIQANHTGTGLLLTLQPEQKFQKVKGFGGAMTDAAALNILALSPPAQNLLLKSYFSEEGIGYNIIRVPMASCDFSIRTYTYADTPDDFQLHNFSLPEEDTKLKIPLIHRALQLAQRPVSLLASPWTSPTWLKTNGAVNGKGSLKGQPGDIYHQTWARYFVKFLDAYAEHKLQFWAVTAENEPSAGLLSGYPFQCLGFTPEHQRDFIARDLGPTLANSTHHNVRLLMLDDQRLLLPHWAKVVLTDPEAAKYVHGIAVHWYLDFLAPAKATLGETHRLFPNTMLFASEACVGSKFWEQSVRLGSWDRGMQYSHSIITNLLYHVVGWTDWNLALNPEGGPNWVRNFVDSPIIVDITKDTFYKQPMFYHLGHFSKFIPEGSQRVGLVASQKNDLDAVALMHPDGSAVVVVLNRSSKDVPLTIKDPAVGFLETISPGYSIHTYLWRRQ
NCGC Assay Protocol Summary: Both enzyme and substrate were diluted in buffer composed of 50mM citric acid/KH2PO4, 10mM sodium taurocholate and 0.01% tween-20 at pH 5.9. The final concentration of the enzyme was 0.2 nM in both assays. The compound library was titrated in 7 to 15 concentrations for the primary screens with a final concentration ranging from 0.6 nM to 50 uM. This particular assay protocol is for the "red" substrate, and it was performed in 1536-well plate format as follows: Red fluorescence substrate assay: 2 uL enzyme 23 nL compound 1 uL substrate (final concentration of 30 uM) Incubate at room temperature (RT) for 20 minutes Read the plate in Viewlux plate reader (Ex=548(7) and Em=600(10)).
As to `CCOC(=O)NC1C=CS(=O)(=O)C1` (stereo not drawn), the Potency is inactive: > 76.9 µM. For `Nc1cccc(S(=O)(=O)c2cccc(N)c2)c1` the value was inactive: > 76.9 µM. For `CCN1CCN(S(=O)(=O)c2ccc(S(=O)(=O)NCC3CCCO3)cc2)CC1` (stereo not drawn) the value was inactive: > 76.9 µM; for `Cc1oc(C)c(C(=O)NCCCC(=O)O)c1C(=O)NCCCC(=O)O`, inactive: > 76.9 µM; for `CCOC(=O)C1CCCN(C(=O)Nc2cccc(Cl)c2)C1` (stereo not drawn), inactive: > 76.9 µM. With `CCOC(=O)c1c(NC(=O)CSc2nnc(CN3CCOCC3)n2C)sc2c1CCCC2` the figure was inactive: > 76.9 µM; with `CN(Cc1nc(-c2ccncc2)no1)S(=O)(=O)c1ccc(Cl)cc1`, inactive: > 76.9 µM; with `O=S(=O)(c1ccc2nc(COc3ccc(Cl)cc3Cl)[nH]c2c1)N1CCOCC1`, inactive: > 76.9 µM. In the case of `O=C(c1ccc(N2CCCC2=O)cc1)N1CCN(c2ccccc2)CC1`, the Potency was inactive: > 76.9 µM.

`N#Cc1cn(-c2ccccc2)nc1-c1ccc2c(c1)OCCO2`: the Potency is inactive: > 76.9 µM.

As to `N#CCCN(Cc1cccnc1)S(=O)(=O)c1ccc(S(=O)(=O)N2CCCCCC2)cc1`, the Potency is inactive: > 76.9 µM.

As for `CN1CCCCCC1=Nc1ccccc1C#N`, the Potency is inactive: > 76.9 µM.

With `CS(=O)(=O)Nc1ccc2c(c1)C(=O)OC2`, the Potency is inactive: > 76.9 µM. Consider `COc1ccc(CNC(=O)c2cc(-c3ccco3)on2)cc1`, for which the Potency was inactive: > 76.9 µM. For `Cc1cccc(C)c1NC(=O)CS(=O)CC(=O)NC1CCCc2ccccc21` (stereo not drawn) the value was inactive: > 76.9 µM; for `COc1ccc2[nH]c(=O)c(CN(C(C)=O)c3cccc(C)c3)cc2c1`, inactive: > 76.9 µM. For `Fc1ccc(Cn2nnnc2C(c2cccs2)N2CCCCCC2)cc1` (stereo not drawn) the value was inactive: > 76.9 µM; for `Cc1cc(C)cc(-n2ccnc2SCC(=O)Nc2nccs2)c1`, inactive: > 76.9 µM. With `O=C(O)CSCc1nc2ccccc2s1` the figure was inactive: > 76.9 µM; with `CCOC(=O)C1=C(N)Oc2cc(C)n(C)c(=O)c2C1c1ccncc1` (stereo not drawn), inactive: > 76.9 µM. For `O=c1cc(Nc2ccc3c(c2)OCO3)[nH]c(=O)n1-c1ccc(Br)cc1`, the Potency was inactive: > 76.9 µM. For `COc1ccc2cc3cc(C(=O)NCCc4ccc(OC)c(OC)c4)oc3nc2c1` the value was inactive: > 76.9 µM. With `c1ccc2c(c1)nnn2-c1ncnc2sc3c(c12)CCCC3`, the Potency was inactive: > 76.9 µM. For `CCC(=O)Nc1cccc(NC(=O)c2ccc3c(c2)OCO3)c1` the value was inactive: > 76.9 µM. With `CC(=O)N1CC2(C)CN(C(C)=O)CC(C)(C1)C2`, the Potency is inactive: > 76.9 µM. For `O=C1CCCCCN1Cc1nnc(SCc2nc3ccccc3s2)n1-c1ccccn1` the value was inactive: > 76.9 µM. For `O=C1CC(c2ccccc2)n2nc(NC(=O)c3cccnc3)nc2N1` (stereo not drawn) the value was inactive: > 76.9 µM; for `Nc1cc(-c2ccccc2)ccc1O`, inactive: > 76.9 µM. With `O=C(CN(Cc1ccco1)C(=O)CNS(=O)(=O)c1ccc(Cl)cc1)NCc1ccc(F)cc1` the figure was inactive: > 76.9 µM. As for `CCOc1ccccc1NC(=O)C1CCCN(S(=O)(=O)c2cccc3nsnc23)C1` (stereo not drawn), the Potency was inactive: > 76.9 µM. Take `COc1cc2ccccc2cc1C(=O)Nc1ccccc1N1CCN(S(C)(=O)=O)CC1`: the Potency was inactive: > 76.9 µM. With `C=CCn1nnc2sc3c(c2c1=O)CCC(C)C3` (stereo not drawn) the figure was inactive: > 76.9 µM. With `CC(=O)N1CCN(c2ccc(NCc3ccccc3)cc2)CC1` the figure was active: 13 µM; with `Cn1c(CCNC(=O)c2ccccc2F)nnc1SCc1nc2ccccc2c(=O)[nH]1`, inactive: > 76.9 µM. Turning to `c1cncc(-c2nnc3n2CCC3)c1`, the Potency was inactive: > 76.9 µM. With `CCOC(=O)C1(Cc2ccccc2)NC(c2ccccc2F)C2C(=O)N(CC)C(=O)C21` (stereo not drawn) the figure was inactive: > 76.9 µM.

As for `Cn1c(CN2CCCCC2)nc2cc(NC(=O)c3ccc(F)cc3)ccc21`, the Potency was inactive: > 76.9 µM. Turning to `COCCn1nnnc1C(c1cc2c(C)cc(C)cc2[nH]c1=O)N1CCCCCC1` (stereo not drawn), the Potency is inactive: > 76.9 µM. With `O=C(CCn1nnc2ccccc21)Nc1nnc(Cc2ccccc2)s1` the figure was inactive: > 76.9 µM; with `Cc1ccc(CNC(=O)CCS(=O)(=O)c2cccc3nsnc23)cc1`, inactive: > 76.9 µM; with `COCC(=O)Nc1ccccc1C(=O)Nc1ccc(OC)cc1`, inactive: > 76.9 µM.

For `CS(=O)(=O)N(Cc1ccco1)Cc1ccccc1Cl`, the Potency is inactive: > 76.9 µM. With `CC(=O)Nc1cccc(NC(=O)C2CC(=O)N(c3ccc(C)cc3)C2)c1` (stereo not drawn) the figure was inactive: > 76.9 µM; with `CCN(CC)S(=O)(=O)c1ccc(C(=O)NCCc2cc3c(OC)ccc(OC)c3[nH]c2=O)cc1`, inactive: > 76.9 µM; with `NC(=O)NC(=O)COC(=O)CCCc1c[nH]c2ccccc12`, inactive: > 76.9 µM.

For the molecule `CCOc1cc(C2C(C#N)=C(N)Oc3n[nH]c(C)c32)ccc1OCCN1CCOCC1` (stereo not drawn), the Potency was inactive: > 76.9 µM.

With `CCn1c(Cc2ccccc2)nnc1SCC(=O)Nc1ccccc1`, the Potency is inactive: > 76.9 µM. For `Cc1cccc(N2CCCn3c2nc2c3c(=O)n(CCN3CCOCC3)c(=O)n2C)c1` the value was inactive: > 76.9 µM.

Turning to `CSc1ccc(S(=O)(=O)NCc2ccccc2Cl)cc1`, the Potency is inactive: > 76.9 µM. For `COc1ccccc1NC(=O)N1CCC(C(=O)c2ccc(F)cc2)CC1` the value was inactive: > 76.9 µM. As to `c1ccc(-n2c(-c3ccncc3)nnc2-c2cccs2)cc1`, the Potency is inactive: > 76.9 µM. With `COc1cccc(NS(=O)(=O)c2ccc3c(c2)n(C)c(=O)c(=O)n3C)c1` the figure was inactive: > 76.9 µM.

Turning to `COc1cccc(Oc2c(C)oc3c(CN4CCOCC4)c(O)ccc3c2=O)c1`, the Potency was inactive: > 76.9 µM. For `C=CCn1c(CC(=O)Nc2cccc(OC)c2)nnc1SCC(=O)NC1CCCCC1` the value was inactive: > 76.9 µM. With `Cc1ccc(C(=O)CC2(O)C(=O)N(CN3CCOCC3)c3ccccc32)cc1` (stereo not drawn) the figure was inactive: > 76.9 µM.

On to `COc1cc(C(=O)OC(C)CN2CCN(C)CC2)cc(OC)c1OC` (stereo not drawn), for which the Potency was inactive: > 76.9 µM. For `CN(C)C(=O)c1ccc(NC(=O)c2cncc(Br)c2)cc1` the value was inactive: > 76.9 µM. With `COc1cccc(NC(=O)CN(c2ccc(C)cc2)S(=O)(=O)c2c(C)nn(C)c2C)c1` the figure was inactive: > 76.9 µM.
